Data as given in PubChem BioAssay AID445 (National Center for Advancing Translational Sciences (NCATS), 2006).
Screen size: about 110,000 compounds; about 40 (0.04%) were called active. The inconclusive results got no clear call from the source; some entries with a clear call stand among them for comparison. Calls follow the shape of the dose curve; as a rule, active = well fitted curve in the direction sought with a large enough effect in the signal ratio (not every such curve was filed as active); inconclusive = small, poorly fitted or top-dose-only effect, or a change in a side signal; inactive = flat fitted curve, though single readings scatter; the % refers to the signal ratio. A potency beside an inconclusive call is a rough fit, not a confirmed value.

assay: IkB Signaling; details: ABC-DLBCL IkBa-CBG/CBR dual luciferase ratio (green luciferase fused to IkBa over red control in OCI-Ly3 lymphoma cells), 4 h; IkBa stabilization activation: at 57.1 µM (top of the series), scaled: untreated 0%, proteasome inhibitor 100% unless noted;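 as to IkBa stabilization activation: 0% = basal untreated cells and 100% = reference inhibitor full response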
Method in brief: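 Curves were fitted separately to fusion (green), unfused (red) and ratio luminescence, then classed by r2, magnitude and activity. Cells: OCI-Ly3, 4 h compound plus doxycycline at 37C; 10 uM MG-132 defined full response.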
Potency is read from the fitted curve at half-maximal effect.

Q: Which IkBa stabilization activation does the source give for `Cc1nn(CCC(=O)Nc2cccc(C#N)c2)c(C)c1S(=O)(=O)N1CCC(C)CC1` here?
A: Its IkBa stabilization activation is inconclusive: 2.12% [signal inhibitor].

Q: With `COc1ccc(-n2cnc3cc(C(=O)NCCC4=CCCCC4)ccc32)cc1` as the molecule, how does the “IkBa stabilization activation” value read?
A: Its value is inactive: -5.68%.

Q: Which IkBa stabilization activation does the source give for `COC(=O)Nc1ccc(S(=O)(=O)N2CCN(c3ccc(F)cc3)CC2)cc1` here?
A: Its IkBa stabilization activation is inconclusive: 16.9% [signal inhibitor].

Q: With `CCOc1cc(C2NC(=O)NC(C)=C2C(=O)OC(C)CC)cc(Br)c1O` (stereo not given) as the molecule, how does the “IkBa stabilization activation” value read?
A: Its value is inactive: -0.651%.

Q: Which IkBa stabilization activation does the source give for `COC(=O)c1ccccc1NC(=O)Cc1nc(-c2ccc(OC)cc2)no1` here?
A: Its IkBa stabilization activation is inconclusive: 4.85% [signal inhibitor].

Q: With `Cc1csc2nc(COC(=O)c3ccc(NC(=O)c4ccccc4Br)cc3)cc(=O)n12` as the molecule, how does the IkBa stabilization activation read?
A: The IkBa stabilization activation was inconclusive: 6.04% [signal inhibitor].

Q: With `COc1ccc(OC)c(NC(=O)CN(c2ccccc2OC)S(=O)(=O)c2ccc(C)cc2)c1` as the molecule, how does the IkBa stabilization activation read?
A: The IkBa stabilization activation was inconclusive: 2.35% [signal inhibitor].

Q: With `Cc1nc2nc(SCC(=O)NCCc3ccc(Cl)cc3)nn2c(C)c1Cc1c(F)cccc1Cl` as the molecule, how does the IkBa stabilization activation read?
A: The IkBa stabilization activation was inconclusive: -0.44% [signal inhibitor].

Q: For `Cc1ccc(NC(=O)C2CCCN2S(=O)(=O)c2ccc3c(c2)n(C)c(=O)c(=O)n3C)cc1` (stereo not given), which IkBa stabilization activation is on record?
A: The IkBa stabilization activation was inconclusive: 1.24% [signal inhibitor].

Q: With `CCOc1ccccc1NC(=O)c1ccccc1-c1nc(-c2ccccc2)no1` as the molecule, how does the “IkBa stabilization activation” value read?
A: Its value is inactive: 1.21%.

Q: With `Cc1ccc(-n2ncc3c(N4CCN(Cc5ccccc5)CC4)ncnc32)cc1C` as the molecule, how does the IkBa stabilization activation read?
A: The IkBa stabilization activation was inconclusive: -4.27% [signal inhibitor].

Q: For `Cc1oc(-c2ccccc2F)nc1Cn1c(SCc2cccc(Cl)c2)nc2ccncc21`, which IkBa stabilization activation is on record?
A: Its IkBa stabilization activation is inconclusive: 2.61% [signal inhibitor].

Q: With `C=CCn1c(SCc2nc3ccccc3c(=O)[nH]2)nnc1-c1cc2cc(Cl)ccc2o1` as the molecule, how does the “IkBa stabilization activation” value read?
A: Its value is inactive: 0.9%.

Q: Which IkBa stabilization activation does the source give for `CCOCCc1nn2c(=O)cc(COC(=O)c3ccccc3Br)nc2s1` here?
A: The IkBa stabilization activation was inconclusive: 4.66% [signal inhibitor].

Q: With `O=C(Nc1ccc(F)cc1)N1CCN(c2nc3ccccc3s2)CC1` as the molecule, how does the IkBa stabilization activation read?
A: The IkBa stabilization activation was inconclusive: 2.31% [signal inhibitor].

Q: With `O=C(NCCc1csc(-c2ccc(C(F)(F)F)cc2)n1)c1ccccc1Cl` as the molecule, how does the IkBa stabilization activation read?
A: The IkBa stabilization activation was inconclusive: 0.683% [signal inhibitor].

Q: With `Cc1ccc(S(=O)(=O)c2c(C)nn(C(C)(C)C)c2OC(=O)c2ccc(Br)o2)cc1` as the molecule, how does the IkBa stabilization activation read?
A: The IkBa stabilization activation was inconclusive: -1.37% [signal inhibitor].

Q: With `O=C(Nc1ccccn1)NC12CC3CC(CC(C3)C1)C2` as the molecule, how does the “IkBa stabilization activation” value read?
A: Its value is inactive: 1.99%.

Q: For `Cc1cc(C(=O)O)ccc1[C@H](N)C(=O)O`, which “IkBa stabilization activation” value is on record?
A: The value was inactive: 0.484%.

Q: Which IkBa stabilization activation does the source give for `O=C(COc1ccc(F)cc1)NCc1ccc2c(c1)CCN2C(=O)c1ccc(F)cc1` here?
A: The IkBa stabilization activation was inconclusive: -1.21% [signal inhibitor].

Q: Which Potency does the source give for `Cc1ccc(C)c(N2CCN(c3nc4ccccc4n4nnnc34)CC2)c1` here?
A: Its Potency is inconclusive: 1.58 µM [signal inhibitor].

Q: With `O=C(Nc1ccc(F)c(Cl)c1)C1CCN(c2ncccn2)CC1` as the molecule, how does the IkBa stabilization activation read?
A: Its IkBa stabilization activation is inconclusive: 2.47% [signal inhibitor].

Q: Which IkBa stabilization activation does the source give for `Cc1cccc(OCC(=O)Nc2ccc(S(=O)(=O)N(Cc3ccccc3)c3ccccc3)cc2)c1` here?
A: Its IkBa stabilization activation is inconclusive: -0.511% [signal inhibitor].

Q: With `COC(=O)c1ccccc1NC(=O)C1CCCN(C(=O)c2cnn(-c3ccc(F)cc3)c2-n2cccc2)C1` (stereo not given) as the molecule, how does the IkBa stabilization activation read?
A: Its IkBa stabilization activation is inconclusive: 2.86% [signal inhibitor].

Q: For `CCc1nn(CC(=O)NCC(C)c2ccccc2)c(=O)c2cc3c(OC)cccc3n12` (stereo not given), which IkBa stabilization activation is on record?
A: Its IkBa stabilization activation is inconclusive: 3.34% [signal inhibitor].

Q: Which IkBa stabilization activation does the source give for `COCCn1c(=O)[nH]c2cc(C(=O)N3CCN(c4ccc(F)cc4)CC3)ccc2c1=O` here?
A: The IkBa stabilization activation was inconclusive: 0.44% [signal inhibitor].

Q: For `CC(C)(C)C1CCC2(CC1)CCN(CCCN1CCOCC1)CC2`, which IkBa stabilization activation is on record?
A: The IkBa stabilization activation was inactive: 0.282% [at 11.4 µM, scaled: untreated 0%, proteasome inhibitor 100%].

Q: Which IkBa stabilization activation does the source give for `COc1cccc(-c2csc(N3CCN(C(=O)C4CCCCC4)CC3)n2)c1` here?
A: Its IkBa stabilization activation is inconclusive: -1.79% [signal inhibitor].

Q: With `C/C(Cl)=C/Cn1c(SCc2ccc(Cl)cc2)nc2c1c(=O)[nH]c(=O)n2C` as the molecule, how does the “IkBa stabilization activation” value read?
A: The value was inactive: -1.05%.

Q: Which IkBa stabilization activation does the source give for `CCOc1ccccc1Nc1nnc(SCC(=O)N2CCCC2)s1` here?
A: The IkBa stabilization activation was inconclusive: 9.21% [signal inhibitor].

Q: Which Potency does the source give for `Clc1ccc(-c2nnn3c2nc(N2CCCCC2)c2ccccc23)cc1` here?
A: Its Potency is inconclusive: 0.316 µM [signal inhibitor].

Q: Which IkBa stabilization activation does the source give for `CCOc1ccc(NC(=O)c2cnn3c2NC(c2ccccc2)=CC3c2cccc(OC)c2OC)cc1` (stereo not given) here?
A: Its IkBa stabilization activation is inconclusive: 3.92% [signal inhibitor].

Q: For `CCOC(=O)C1=C(C)Nc2nc(SC)nn2C1c1ccc(C(=O)OC)cc1` (stereo not given), which “IkBa stabilization activation” value is on record?
A: The value was inactive: -0.91%.

Q: For `O=C(Oc1ccc2ccc(OC(=O)N3CCOCC3)cc2c1)N1CCOCC1`, which “IkBa stabilization activation” value is on record?
A: Its value is inactive: -3.37%.

Q: With `Cc1ccccc1NC(=O)c1cc2ccccc2o1` as the molecule, how does the Potency read?
A: Its Potency is inconclusive: 31.6 µM [signal inhibitor, single point].
